Measured values taken from PubChem BioAssay AID686978 (National Center for Advancing Translational Sciences (NCATS), 2013).
“And” between values parts separate entries of the source, which are not always exact repeats. Identical values can stand only once. In all, about 420,000 compounds went through this assay and about 64,000 (15%) were called active. The inconclusive results got no clear call from the source; some entries with a clear call stand among them for comparison. The call rests on the fitted dose curve; in most records, active means well fitted inhibition curve with a large enough effect; inconclusive means small, poorly fitted or top-dose-only effect; inactive means flat fitted curve, though single readings scatter. Potencies of inconclusive entries are doubtful fits and often do not repeat.

test: qHTS for Inhibitors of human tyrosyl-DNA phosphodiesterase 1 (TDP1): qHTS in cells in absence of CPT; details: DT40 Tdp1-/- hTDP1 cells, no CPT, ATP luminescence, 48 h; activity change, negative = growth inhibition: at 46.2 µM (top of the series) unless noted; further: nearly all actives have a fitted effect of over 55% in size
Procedure, shortened: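 DT40 Tdp1-/-;hTDP1 cells, no CPT (DMSO vehicle only), 400 cells/well; compounds pin-transferred; ≥48 hr, 37 °C; CellTiter-Glo 30 min RT dark, luminescence read.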
On the % scale 0 is the no-effect control and ±100 the full control effect; potency means the concentration at half of the fitted maximal effect; tags describe the fitted curve by direction and shape.

| SMILES | Potency | activity change, negative = growth inhibition |
| --- | --- | --- |
| COc1ccccc1-c1nnc(C2CCN(S(=O)(=O)c3ccc(CC(C)C)cc3)CC2)o1 | inconclusive: 18.4 µM [inhibitor, single point] |  |
| Cc1ccnc(N2CCN(C(=O)CSc3nc4ccccc4nc3N3CCC(C)CC3)CC2)c1 | inconclusive: 20.6 µM [inhibitor, single point] |  |
| COc1ccc(/C=N/OCC(=O)Nc2ccc3c(c2)OCO3)c(OC)c1 | inconclusive: 25.9 µM [inhibitor, single point] |  |
| CC(=O)c1cccc(N(C(=O)c2ccco2)C(C(=O)NC2CCCCC2)c2ccc(C)o2)c1 (centres undefined) |  | inactive: -27% |
| Nc1nc(N2CCN(C(c3ccccc3)c3ccccc3)CC2)n[nH]1 | inconclusive: 32.6 µM [inhibitor, partial curve, poor fit] |  |
| CCOC(=O)c1c(C)n(C)c2ccc(OCC(N)=O)cc12 | inconclusive: 29.1 µM [inhibitor, single point] |  |
| Cc1ccc(S(=O)(=O)CC(=O)Nc2sc(C)c(C)c2C(N)=O)cc1 |  | inconclusive: -37.3% [inhibitor] |
| O=c1cc(-c2ccccc2)c2c([nH]1)CCCC2 |  | inconclusive: -30.3% [inhibitor] |
| CC(C)C(=O)Nc1ccc(C(=O)NNC(=S)NC(=O)c2ccccc2[N+](=O)[O-])cc1 |  | inactive: 0.982% |
| O=C(CCc1ccccc1)NCc1ccc2c(c1)CCN2C(=O)c1ccccc1 | active: 20.6 µM |  |
| Cn1nc(C(=O)OCC(=O)NCCc2ccccc2)c2ccccc2c1=O |  | inactive: 4.32% |
| O=C(NCc1ccccc1)C(c1ccco1)N(C(=O)c1ccccn1)c1ccc(F)cc1 (centres undefined) |  | inactive: -7.21% |
| C=C1CCN([C@@H](Cc2ccccc2)C(=O)NC2CCN(Cc3ccccc3)CC2)S(=O)(=O)c2ccccc21 | inconclusive: 20.6 µM [inhibitor, single point] |  |
| Cc1cccc(C(=O)NC2CCN(S(=O)(=O)c3ccccc3F)CC2)c1 | inconclusive: 23.1 µM [inhibitor, single point] |  |
| CO[C@H]1[C@H](NC(=O)c2ccco2)c2ccccc2C12CCN(Cc1cccn1-c1ccccn1)CC2 |  | inactive: -3.98% |
| Cc1cc(C)n(S(=O)(=O)c2ccc3oc(=O)ccc3c2)n1 |  | inactive: -37.4% |
| CCS(=O)(=O)N1CCN(c2ccc(Cl)cc2[N+](=O)[O-])CC1 | inconclusive: 23.1 µM [inhibitor, partial curve] |  |
| COc1ccc(OC)c(C2=NOC(C(=O)NCc3cccs3)C2)c1 (centres undefined) | active: 7.31 µM |  |
| COc1ccccc1NC(=O)c1oc2ccccc2c1NC(=O)Cc1cccs1 | inconclusive: 20.6 µM [inhibitor, single point] |  |
| CCC(C(=O)Nc1c[nH]c(=O)[nH]c1=O)c1ccccc1 (centres undefined) |  | inactive: -25.3% |
| CC(=O)N1CCc2c(sc3c2c(=O)n(CCc2ccccc2)c(=O)n3CC(=O)Nc2ccccc2F)C1 | inconclusive: 29.1 µM [inhibitor, single point] |  |
| CCc1c(O)nc(SCC(=O)c2ccccc2)n(-c2ccccc2)c1=O | inconclusive: 25.9 µM [inhibitor, single point] |  |

| SMILES | Potency | activity change, negative = growth inhibition |
| --- | --- | --- |
| O=C(Nc1ccccc1)c1cc(C2CCCCN2S(=O)(=O)c2ccccc2)on1 (centres undefined) | inconclusive: 2.59 µM [inhibitor, partial curve] |  |
| CCOC(=O)[C@]12CCCC=C1N(Cc1ccccc1)C(=O)[C@H](CC(=O)N1CCOCC1)C2 |  | inactive: 6.61% |
| Cc1cc2nccc(-c3ccncc3)n2n1 |  | inactive: -17.9% |
| COc1ccccc1N1CCN(c2ccc(=O)n(CC(=O)Nc3cc(F)ccc3C)n2)CC1 | active: 23.1 µM |  |
| CC1C/C(=N\NC(=S)NC(C)C)CC(C)(C)C1 (centres undefined) | active: 18.4 µM |  |
| CCNC(=S)N(Cc1ccco1)Cc1cc2cc(OCC)ccc2[nH]c1=O | inconclusive: 14.6 µM [inhibitor, partial curve] |  |
| COc1cc2c(cc1OC)C(c1ccc(Cl)cc1)N(c1cccc(C#N)c1)C(=O)C2 (centres undefined) | inconclusive: 29.1 µM [inhibitor, single point] |  |
| COc1ccc(-c2cc3c(=O)n(CC(=O)Nc4cccc(Cl)c4)nc(C)n3n2)cc1 | inconclusive: 9.2 µM [inhibitor, partial curve] |  |
| CCC(c1nnnn1-c1ccc2c(c1)OCCO2)N1CCN(c2ccccc2)CC1 (centres undefined) | inconclusive: 29.1 µM [inhibitor, single point] |  |
| O=C(NCC1CCCO1)c1ccc2c(=O)n(Cc3cccc(Br)c3)c(=S)[nH]c2c1 (centres undefined) |  | inactive: -29.3% |
| Cc1cc(C)c(S(=O)(=O)n2ccc(-c3ccc(OCCN(C)c4ccccn4)cc3)n2)c(C)c1 | inconclusive: 25.9 µM [inhibitor, single point] |  |
| Nc1nonc1-n1nnc(C(=O)N/N=C/c2cc(Br)ccc2O)c1CNc1ccccc1 | active: 8.2 µM |  |
| COc1cccc(NC(=O)Cn2c(=O)n(-c3ccccc3)c(=O)c3ccc(C(=O)NCc4ccc5c(c4)OCO5)cc32)c1 | inconclusive: 23.1 µM [inhibitor, partial curve] |  |
| COc1ccc(C(=O)NNC(=O)CSc2nnc(C)n2CC2CCCO2)cc1 (centres undefined) |  | inactive: -3.35% |
| Cc1ccc(NC(=O)[C@@H]2O[C@H](CO)[C@@H](O)[C@H]2O)cc1C(F)(F)F |  | inactive: -28.4% |
| CNC(=O)CC1C(=O)N(c2ccc(Cl)cc2)C(=S)N1CCc1ccc(OC)c(OC)c1 (centres undefined) | active: 9.2 µM |  |
| O=C(N=Nc1c(O)[nH]c2ccccc12)Nc1ccccc1 | inconclusive: 29.1 µM [inhibitor, single point] |  |
| O=C(Nc1ccccc1C(=O)O)c1cc(S(=O)(=O)Nc2ccccc2)ccc1Cl | inconclusive: 25.9 µM [inhibitor, partial curve] |  |
| CC(C)Nc1ncnc2c1ncn2[C@H]1CN(Cc2ccncc2)C[C@@H](CO)O1 | inconclusive: 29.1 µM [inhibitor, single point] |  |
| O=C(Nc1nc2c(F)cc(F)cc2s1)C1CCN(C(=O)c2ccc(F)cc2)CC1 | inconclusive: 25.9 µM [inhibitor, single point] |  |
| Cc1nn(Cc2ccc(Cl)cc2)c(C)c1NC(=O)c1cc(-c2ccco2)on1 | active: 23.1 µM |  |
| CCC(NC(C)C)C(O)c1ccc(O)c(O)c1 (centres undefined) | inactive and inconclusive: 29.1 µM [inhibitor, single point] |  |
